# According to the antibiotic and cytotoxicity screens of Wong et al. (2023):
# The list shows a part of the results.
# System: HSkMC (human skeletal muscle cells)
# Assay: cytotoxicity call (relative viability < 0.9)
# Details: 10 µM
row,SMILES,cytotoxicity call
1,COc1ccc(NC(=O)N(C)C[C@H]2OCCCC[C@@H](C)Oc3ccc(NC(=O)c4ccncc4)cc3C(=O)N([C@H](C)CO)C[C@@H]2C)cc1,inactive
2,CO[C@@H]1CN(C)C(=O)c2ccc(NC(=O)CC(F)(F)F)cc2OC[C@H](C)N(C(=O)C2CCOCC2)C[C@H]1C,inactive
3,COc1ccc(S(=O)(=O)N(C)C[C@@H]2Oc3c(NC(=O)c4cc(C)nn4C)cccc3C(=O)N([C@H](C)CO)C[C@@H]2C)cc1,inactive
4,C[C@@H]1CN([C@H](C)CO)C(=O)c2cc(NS(=O)(=O)c3ccc(Cl)cc3)ccc2O[C@@H](C)CCCCO[C@@H]1CN(C)S(=O)(=O)c1ccc(F)cc1,inactive
5,COc1ccc(S(=O)(=O)N(C)C[C@@H]2Oc3ccc(NC(=O)CCC(F)(F)F)cc3CC(=O)N([C@H](C)CO)C[C@@H]2C)cc1,inactive
6,COc1ccc(S(=O)(=O)N(C)C[C@@H]2OCCCC[C@H](C)Oc3ccc(NC(=O)Nc4c(C)noc4C)cc3C(=O)N([C@@H](C)CO)C[C@@H]2C)cc1,inactive
7,C[C@@H]1CN([C@H](C)CO)C(=O)c2cc(NC(=O)NC3CCCCC3)ccc2O[C@@H](C)CCCCO[C@H]1CN(C)C(=O)Nc1ccc(F)cc1,inactive
8,C[C@@H]1CN([C@@H](C)CO)C(=O)c2cc(NC(=O)NC3CCCCC3)ccc2O[C@@H](C)CCCCO[C@@H]1CN(C)S(=O)(=O)c1ccc(F)cc1,inactive
9,COc1ccc(S(=O)(=O)N2C[C@H](O)COC[C@H]3O[C@@H](CC(=O)NCCCN4CCOCC4)CC[C@@H]32)cc1,inactive
10,Nn1c([C@@H](O)c2ccccc2)n[nH]c1=S,inactive
11,Cn1nc(C#N)c2c1CN(S(C)(=O)=O)CCC2,inactive
12,C[C@@H]1CN([C@H](C)CO)C(=O)Cc2cc(NC(=O)Nc3cccc4ccccc34)ccc2O[C@@H]1CN(C)C(=O)Nc1ccccc1,inactive
13,COc1ccc(CN(C)C[C@H]2OCCCC[C@H](C)Oc3ccc(NC(=O)Nc4ccc(OC)cc4)cc3C(=O)N([C@@H](C)CO)C[C@@H]2C)cc1,inactive
14,COc1ccc(NC(=O)N(C)C[C@@H]2OCCCC[C@@H](C)Oc3ccc(NS(=O)(=O)c4ccccc4)cc3C(=O)N([C@@H](C)CO)C[C@@H]2C)cc1,inactive
15,Cc1nccn1-c1cccc(CN)c1,inactive
16,Cc1cc(C(=O)Nc2cccc3c2O[C@@H](CN(C)C(=O)Nc2ccccc2)[C@H](C)CN([C@@H](C)CO)C3=O)n(C)n1,inactive
17,COc1ccc(NC(=O)N(C)C[C@@H]2Oc3c(NC(=O)c4cnccn4)cccc3C(=O)N([C@@H](C)CO)C[C@H]2C)cc1,inactive
18,COc1ccc(CN(C)C[C@H]2OCCCC[C@@H](C)Oc3ccc(NS(=O)(=O)c4ccc(F)cc4)cc3C(=O)N([C@@H](C)CO)C[C@H]2C)cc1,inactive
19,Cc1noc(C)c1S(=O)(=O)Nc1ccc2c(c1)C(=O)N([C@@H](C)CO)C[C@H](C)[C@H](CN(C)Cc1ccc(C(F)(F)F)cc1)OCCCC[C@H](C)O2,inactive
20,C[C@H]1CN([C@@H](C)CO)C(=O)c2cc(NC(=O)CCC(F)(F)F)ccc2O[C@H]1CN(C)Cc1ccc(-c2ccccc2)cc1,inactive
21,CC(C)CC#Cc1cnc2c(c1)C(=O)N([C@@H](C)CO)C[C@H](C)[C@@H](CN(C)S(=O)(=O)c1ccccc1)O2,inactive
22,C[C@@H]1CCCCO[C@H](CN(C)Cc2ccc(C(=O)O)cc2)[C@H](C)CN([C@H](C)CO)C(=O)c2cc(NS(=O)(=O)c3ccc(Cl)cc3)ccc2O1,inactive
23,C[C@H](CO)N1C[C@H](C)[C@H](CN(C)Cc2ccc(C(=O)Nc3ccccc3N)cc2)Oc2c(NC(=O)Nc3ccc(C(F)(F)F)cc3)cccc2C1=O,inactive
24,O=C(O)c1c(O)c2c([nH]c1=O)CCCC2,inactive
25,CC(C)NC(=O)N(C)C[C@@H]1Oc2c(NC(=O)NC3CCCCC3)cccc2C(=O)N([C@H](C)CO)C[C@@H]1C,inactive
26,Cn1cnc(S(=O)(=O)N[C@@H]2C=C[C@@H](CC(=O)N3CCN(c4ccccc4)CC3)O[C@H]2CO)c1,inactive
27,COc1ccc(NC(=O)N(C)C[C@@H]2OCCCC[C@H](C)Oc3ccc(NC(=O)Nc4c(C)noc4C)cc3C(=O)N([C@@H](C)CO)C[C@@H]2C)cc1,inactive

# System: HepG2
# Assay: cytotoxicity call (relative viability < 0.9)
# Details: 10 µM
row,SMILES,cytotoxicity call
1,O=c1cc(-c2ccc(O)cc2)oc2cc(O)cc(O)c12,inactive
2,OC[C@@H]1COCCN1Cc1ccccc1,inactive
3,Cc1cc(C(=O)Nc2cccc3c2O[C@H](CN(C)S(=O)(=O)c2cccs2)[C@H](C)CN([C@@H](C)CO)C3=O)n(C)n1,inactive
4,CN(C)c1nc(N)nc(CSc2nnnn2C)n1,inactive
5,NCC[C@H]1CC[C@H](NC(=O)C2CC2)[C@@H](CO)O1,inactive
6,COc1ccc(NC(=O)N(C)C[C@H]2Oc3c(NC(=O)c4cnccn4)cccc3C(=O)N([C@@H](C)CO)C[C@@H]2C)cc1,inactive
7,COc1ccc(S(=O)(=O)Nc2ccc3c(c2)C(=O)N([C@@H](C)CO)C[C@@H](C)[C@@H](CN(C)C(=O)Nc2c(C)noc2C)OCCCC[C@H](C)O3)cc1,inactive
8,C[C@H]1CN([C@@H](C)CO)C(=O)CCCn2cc(nn2)CO[C@H]1CN(C)S(=O)(=O)c1ccc(Cl)cc1,inactive
9,COc1ccc(S(=O)(=O)Nc2ccc3c(c2)C(=O)N([C@@H](C)CO)C[C@@H](C)[C@@H](CN(C)C(=O)CCC(F)(F)F)OCCCC[C@H](C)O3)cc1,inactive
10,O=C(N[C@H]1CC[C@H](CC(=O)N2CCOCC2)O[C@@H]1CO)c1ccccn1,inactive
11,Cc1noc(C)c1NC(=O)N(C)C[C@@H]1Oc2ncc(C#CCN(C)C)cc2C(=O)N([C@@H](C)CO)C[C@@H]1C,inactive
12,CC(C)NC(=O)Nc1ccc2c(c1)C(=O)N([C@H](C)CO[Si](C)(C)C(C)(C)C)C[C@@H](C)[C@H](CN(C)S(=O)(=O)c1ccc(Cl)cc1)O2,inactive
13,COc1ccc(NC(=O)N(C)C[C@H]2OCCCC[C@@H](C)Oc3ccc(NC(=O)c4ccncc4)cc3C(=O)N([C@H](C)CO)C[C@@H]2C)cc1,inactive
14,CO[C@@H]1CN(C)C(=O)c2ccc(NC(=O)CC(F)(F)F)cc2OC[C@H](C)N(C(=O)C2CCOCC2)C[C@H]1C,inactive
15,COc1ccc(S(=O)(=O)N(C)C[C@@H]2Oc3c(NC(=O)c4cc(C)nn4C)cccc3C(=O)N([C@H](C)CO)C[C@@H]2C)cc1,inactive
16,C[C@@H]1CN([C@H](C)CO)C(=O)c2cc(NS(=O)(=O)c3ccc(Cl)cc3)ccc2O[C@@H](C)CCCCO[C@@H]1CN(C)S(=O)(=O)c1ccc(F)cc1,inactive
17,COc1ccc(S(=O)(=O)N(C)C[C@@H]2Oc3ccc(NC(=O)CCC(F)(F)F)cc3CC(=O)N([C@H](C)CO)C[C@@H]2C)cc1,inactive
18,COc1ccc(S(=O)(=O)N(C)C[C@@H]2OCCCC[C@H](C)Oc3ccc(NC(=O)Nc4c(C)noc4C)cc3C(=O)N([C@@H](C)CO)C[C@@H]2C)cc1,inactive
19,C[C@@H]1CN([C@H](C)CO)C(=O)c2cc(NC(=O)NC3CCCCC3)ccc2O[C@@H](C)CCCCO[C@H]1CN(C)C(=O)Nc1ccc(F)cc1,inactive
20,C[C@@H]1CN([C@@H](C)CO)C(=O)c2cc(NC(=O)NC3CCCCC3)ccc2O[C@@H](C)CCCCO[C@@H]1CN(C)S(=O)(=O)c1ccc(F)cc1,inactive

row,SMILES,cytotoxicity call
1,COc1ccc(S(=O)(=O)N2C[C@H](O)COC[C@H]3O[C@@H](CC(=O)NCCCN4CCOCC4)CC[C@@H]32)cc1,inactive
2,Nn1c([C@@H](O)c2ccccc2)n[nH]c1=S,inactive
3,Cn1nc(C#N)c2c1CN(S(C)(=O)=O)CCC2,inactive
4,C[C@@H]1CN([C@H](C)CO)C(=O)Cc2cc(NC(=O)Nc3cccc4ccccc34)ccc2O[C@@H]1CN(C)C(=O)Nc1ccccc1,inactive
5,COc1ccc(CN(C)C[C@H]2OCCCC[C@H](C)Oc3ccc(NC(=O)Nc4ccc(OC)cc4)cc3C(=O)N([C@@H](C)CO)C[C@@H]2C)cc1,active
6,COc1ccc(NC(=O)N(C)C[C@@H]2OCCCC[C@@H](C)Oc3ccc(NS(=O)(=O)c4ccccc4)cc3C(=O)N([C@@H](C)CO)C[C@@H]2C)cc1,inactive
7,Cc1nccn1-c1cccc(CN)c1,inactive
8,Cc1cc(C(=O)Nc2cccc3c2O[C@@H](CN(C)C(=O)Nc2ccccc2)[C@H](C)CN([C@@H](C)CO)C3=O)n(C)n1,inactive
9,COc1ccc(NC(=O)N(C)C[C@@H]2Oc3c(NC(=O)c4cnccn4)cccc3C(=O)N([C@@H](C)CO)C[C@H]2C)cc1,inactive
10,COc1ccc(CN(C)C[C@H]2OCCCC[C@@H](C)Oc3ccc(NS(=O)(=O)c4ccc(F)cc4)cc3C(=O)N([C@@H](C)CO)C[C@H]2C)cc1,inactive
11,Cc1noc(C)c1S(=O)(=O)Nc1ccc2c(c1)C(=O)N([C@@H](C)CO)C[C@H](C)[C@H](CN(C)Cc1ccc(C(F)(F)F)cc1)OCCCC[C@H](C)O2,inactive
12,C[C@H]1CN([C@@H](C)CO)C(=O)c2cc(NC(=O)CCC(F)(F)F)ccc2O[C@H]1CN(C)Cc1ccc(-c2ccccc2)cc1,inactive
13,CC(C)CC#Cc1cnc2c(c1)C(=O)N([C@@H](C)CO)C[C@H](C)[C@@H](CN(C)S(=O)(=O)c1ccccc1)O2,inactive
14,C[C@@H]1CCCCO[C@H](CN(C)Cc2ccc(C(=O)O)cc2)[C@H](C)CN([C@H](C)CO)C(=O)c2cc(NS(=O)(=O)c3ccc(Cl)cc3)ccc2O1,inactive
15,C[C@H](CO)N1C[C@H](C)[C@H](CN(C)Cc2ccc(C(=O)Nc3ccccc3N)cc2)Oc2c(NC(=O)Nc3ccc(C(F)(F)F)cc3)cccc2C1=O,inactive
16,O=C(O)c1c(O)c2c([nH]c1=O)CCCC2,inactive
17,CC(C)NC(=O)N(C)C[C@@H]1Oc2c(NC(=O)NC3CCCCC3)cccc2C(=O)N([C@H](C)CO)C[C@@H]1C,inactive
18,Cn1cnc(S(=O)(=O)N[C@@H]2C=C[C@@H](CC(=O)N3CCN(c4ccccc4)CC3)O[C@H]2CO)c1,inactive
19,COc1ccc(NC(=O)N(C)C[C@@H]2OCCCC[C@H](C)Oc3ccc(NC(=O)Nc4c(C)noc4C)cc3C(=O)N([C@@H](C)CO)C[C@@H]2C)cc1,inactive
